In article PMC12040169 (PLOS Biology, 2025):
This is one part of the list.

Each molecule was assayed on T1, C. trachomatis L2/434/Bu expressing GFP (CTL2-GFP). Details: total inclusion area; 28.5 h, 10 µM; inhibitor.
T1 construct: L2/434/Bu GFP intracellular growth in HeLa cells
Design: species or system HeLa; C. trachomatis total inclusion area by high-content imaging, normalised to DMSO
In short: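 Following bulk GFP and resorufin fluorescence reads, infected cells were fixed, Hoechst-stained and imaged on a high-content platform. Inclusion total area and number per well served as growth proxies; nuclei counts indicated host viability. MICs were derived as for the fluorescence assay.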

SMILES | % of control remaining
C(=C\CSC1=NCCN1)/CSC1=NCCN1 [CBK264266] | 131.75
O=c1[nH]c2ccccc2n1CCOc1ccccc1 [CBK288008] | 114.214
CC[C@@H]1CCCCN1C(=O)c1sc2nc(C(C)=O)ccc2c1Cl [CBK091036] | 84.3525
C[C@H](Nc1nc(-c2cccc(C(=O)NCCN(C)C)c2)cnc1N)c1ccccc1 [CBK063714] | 114.947
Cc1ccc(NC(=O)CN(C)C)c(C)n1 [CBK200388] | 100.059
Cc1c(C=Cc2cc(C(=O)O)c3ccccc3n2)cc(C#N)n1C [CBK295604] | 87.8617
N#Cc1c(NC(=O)CSc2nc3ccccc3s2)oc(-c2ccccc2)c1-c1ccccc1 [CBK269019] | 55.4905
COCC1CCN(c2ncc(C#N)cc2Cl)CC1 [CBK306410] | 28.1008
COc1ncc(-c2nccnc2N[C@@H]2CCN(Cc3ccccc3)C2)c(OC)n1 [CBK036926] | 120.535
COc1ccc(C(=O)C2=C(O)C(=O)N(CCCO)C2c2ccc(Br)cc2)cc1 (centres unmarked) [CBK263769] | 111.365
OCc1ccccc1-c1nccnc1NCCc1cccnc1 [CBK037444] | 76.094
O=C(NCCc1c[nH]c2cccc(C3(O)CCCC3)c12)C1CC1 [CBK285319] | 97.0547
CCN1CCCN(c2ccc(-n3ccc(C)n3)nn2)CC1 [CBK306297] | 51.7351
Cn1nccc1C(=O)C1CCN(C(=O)c2cccs2)CC1 [CBK284424] | 91.1755
CC(C)C(=O)Nc1cc2ccccc2c(-c2cccnc2)n1 [CBK073786] | 97.2648
Cc1ccc2nc(C)c(CCC(=O)O)c(O)c2c1 [CBK262946] | 80.0898
O=C(c1ccsc1NS(=O)(=O)c1cc(Cl)sc1Cl)N1CCOCC1 [CBK042288] | 95.0771
O=C(COc1ccccc1[N+](=O)[O-])Nc1ccc(Cl)c(-c2nc3ncccc3o2)c1 [CBK268811] | 109.4
Cc1cnc(NC(=O)C2CC(=O)N(Cc3cccs3)C2)s1 (centres unmarked) [CBK175531] | 33.399
CCc1cc2cc3c(cc2nc1SCC(=O)Nc1cc(OC)ccc1OC)OCO3 [CBK108546] | 86.117
CCc1nc2c(OCCOC)cccn2c1N(C)C(=O)c1ccccc1F [CBK147722] | 104.16
CCOC(=O)CN1C(=O)S/C(=C/c2ccc(OCc3ccc(Br)cc3)cc2)C1=O [CBK264686] | 108.926
N#CCCCN1C(=O)C(O)(CC(=O)c2ccccn2)c2ccccc21 (centres unmarked) [CBK307373] | 62.1319
O=C(CCS(=O)(=O)Cc1ccccc1)Nc1cc(C(F)(F)F)ccc1Cl [CBK268399] | 97.2096
O=C(NC(Cc1cccs1)c1nccs1)C1CSCN1 (centres unmarked) [CBK284805] | 130.219
COc1ccccc1CNC(=O)N[C@@H](CC(C)C)C(=O)O [CBK286722] | 73.7219
COc1cccc(-c2cnc(N(C)S(C)(=O)=O)c(C(=O)NC3CCCCC3)c2)c1 [CBK106446] | 101.664

SMILES | % of control remaining
Cc1cccc(C(=O)N2CCCCC2C)c1 (centres unmarked) [CBK074052] | 71.4233
NS(=O)(=O)c1ccc(NC(=S)N2CCN(CCc3ccccc3)CC2)cc1 [CBK268133] | 83.2275
CN(C)CCCC(=O)N1CCN(c2ncccn2)CC1 [CBK144523] | 89.6365
COc1cccc(CCNC2CC(=O)N(c3ccc(NC(C)=O)cc3)C2=O)c1 (centres unmarked) [CBK265233] | 82.6144
COc1cccc(N2C(=O)N[C@@H]3CCN(S(=O)(=O)c4ccccc4)[C@@H]3C2=O)c1 [CBK289283] | 93.1076
N#CCCCN1CCC(Oc2cncc(OCCN3CCOCC3)n2)C1 (centres unmarked) [CBK084495] | 81.3542
CCCC(=O)N1CCC(c2nc3ccccn3c2NC(C)(C)C)CC1 [CBK284744] | 114.602
Cc1c(C(=O)O)sc(S(=O)(=O)N2CCN(C(=O)c3ccc(F)cc3)CC2)c1C(=O)O [CBK297118] | 50.1901
CN(C)CC(=O)N1CN(C(=O)c2cccc(Br)c2)C(C)(C)C1 [CBK092206C] | 82.5767
COc1ccc(-c2csc(CCNC(=O)Cc3c[nH]c(=O)[nH]c3=O)n2)cc1 [CBK285670] | 84.4829
COc1ccc(CN(CCN(C)C)C(=O)NCc2ccc(-c3ccccc3)cc2)cc1OC [CBK159293] | 74.0407
CCn1cc(-c2nc3cc(S(=O)(=O)NC(C)C)ccc3n2C(C)C)cn1 [CBK307311] | 81.3818
Cc1ccc(C2=CCN(CC(=O)N3CCCCC3C)CC2)o1 (centres unmarked) [CBK283556] | 108.669
CN1C[C@H](CNC(=O)Nc2ccc(F)c(F)c2)[C@@H](c2ccc(Cl)c(Cl)c2)C1 [CBK076770] | 56.6132
CC(=O)N[C@H](CC(N)=O)C(=O)N1CCC2(C/C=C/C[C@@H]3COCC[C@@H]3NC(=O)[C@@H](CC(C)C)NC2=O)CC1 [CBK292207] | 101.406
CN1C(=O)CC2(C1=O)C(=O)N(CC(=O)O)c1ccc(Cl)cc12 (centres unmarked) [CBK076107] | 115.209
Cc1ccc(S(=O)(=O)NCc2ccccc2)c(C)c1NS(C)(=O)=O [CBK268555] | 125.585
NC1=C(N)OC(Oc2ccccc2C(F)(F)F)=NN1 [CBK018424] | 54.4235
COCc1nc2n(n1)CC(NC1CCCc3sccc31)CC2 (centres unmarked) [CBK305116] | 78.644
Cc1cc(C)c(C(=O)NC2CCN(c3ncccc3C#N)CC2)c(=O)[nH]1 [CBK306709] | 94.9978
Cc1cn(CC(=O)NCC2(c3cccc(F)c3)CCCC2)nn1 [CBK281436] | 105.248
Cc1ccc(C(=O)N/C(=C\c2ccc3c(c2)OCO3)C(=O)NCC(=O)O)cc1 [CBK265669] | 105.748
O=C(O)C(Cc1ccc(O)cc1)c1ccccc1 (centres unmarked) [CBK012287] | 86.7144
O=C(c1cncc(O)c1)N1C2CCC1CC(c1ccc(F)cc1)C2 (centres unmarked) [CBK283764] | 94.398
CSCCCNC(=O)N1CCN(c2ccccc2)CC1 [CBK155170] | 109.33
CCC(C)(C)c1ccc(S(=O)(=O)N2CCN(Cc3cc(C(=O)OC)n(C)c3)CC2)cc1 [CBK062831] | 53.6823
COc1ccnc(N2CCN(C(=O)c3cccc4c3NCCC4)CC2)n1 [CBK306639] | 86.3028

SMILES | % of control remaining
Cc1ccc(C(=O)/C=C(\Nc2cccc(C(F)(F)F)c2)C(=O)O)cc1 [CBK264366] | 91.4296
N#CCCN(C(=O)NCc1ccc2c(c1)OCO2)C1CCCCC1 [CBK156351] | 101.698
CC(C)OCc1ccc(C(=O)N2CCC(C(=O)O)CC2)cc1 [CBK297141] | 80.08
CN1N=C(c2ccc(N3CCOCC3)c(F)c2)CC1c1cnn(C)c1 (centres unmarked) [CBK305726] | 106.63
COc1ccc(C2NCCS2)cc1Br (centres unmarked) [CBK021053] | 105.772
CC(C)OC(=O)CN1C(=O)N2CCCN=C2c2ccccc21 [CBK284394] | 93.1166
CSc1nnc(CC2CCN(C(=O)Cn3nnnc3N)CC2)n1C [CBK306520] | 75.1273
CC(C(=O)Nc1sc2c(c1C(=O)NCc1ccco1)CCCC2)N1C(=O)c2ccccc2C1=O (centres unmarked) [CBK265603] | 101.89
C=C(C)Cn1c(SCC(C)C)nnc1-c1cnccc1C [CBK200075T] | 137.421
CCN(CC)CCn1nc2n(c1=O)-c1ccccc1SC(c1ccccc1)C2 (centres unmarked) [CBK016064] | 86.6886
CS(=O)(=O)N1CC[C@H](c2nc3ccccc3s2)C1 [CBK289374] | 88.8182
Cc1cc(C)nc(N2CCC(CC(=O)Nc3ccccc3CN3CCCC3)CC2)n1 [CBK286072] | 98.8909
COc1ccc(Oc2cncc(OC3CCN(CC(N)=O)C3)n2)cc1OC (centres unmarked) [CBK084402] | 106.439
CN1CCC(N2CCN(C(=O)C3(c4ccccc4)CCCC3)CC2)CC1 [CBK149096] | 84.6914
N#Cc1ccccc1CSc1nnc(Cc2cccc3ccccc23)n1-c1ccccc1 [CBK266633] | 70.6545
C=CCn1oc(=O)n(-c2ccc(OC)cc2)c1=O [CBK122773] | 107.57
O=C1/C(=C/c2c(NCCCn3ccnc3)nc3ccccn3c2=O)SC(=S)N1C1CCCCC1 [CBK264696] | 88.9176
CCC(CN1CCN(C)CC1)NC(=O)Cc1coc2cc(C)ccc12 (centres unmarked) [CBK282790] | 85.5206
CCCNc1nc(Cl)nc(NCc2cccnc2)n1 [CBK261995] | 97.6796
O=C(CN1CCOCC1)N1CCN(C(=O)c2ccc(Cl)cc2Cl)CC1 [CBK028992] | 100.199
Cc1cc(/C=C2/NC(=O)NC2=O)c(C)n1-c1ccc(S(N)(=O)=O)cc1 [CBK264747] | 111.429
CNS(=O)(=O)c1cc(C(=O)N2CCN(c3ccccc3)CC2)ccc1OC [CBK270192] | 91.75
N#CCSC1=CC(=O)CC(c2ccccc2)S1 (centres unmarked) [CBK008460] | 29.6059
CC(C)NC(=O)c1sc2ccccc2c1C1CCN(C(=O)COc2ccccc2)C1 (centres unmarked) [CBK285875] | 113.545
Cc1cc(C)n2nc(C(=O)N3CCCC34CC=CC4)cc2n1 [CBK282815] | 84.7604
O=C(O)CNC(=O)CN1C(=O)c2cc(Cl)c(Cl)cc2C1=O [CBK287156] | 91.0321
